# Experimental data as given in the supplement of paper PMC8728848.
# This is one part of the list.
# B1: GS7807H-bfa-490-18-490 (Bacteroides fragilis) (protein)
# chain: GNLEEMNIDPDNATQTHPKLLLTQICMNAFKRGTDGMYATKKVIQADGESADQYYKWTRGSFGYYDNLRNVQKMGEEAERVNAPVYTALTKFFRAYYFYELTLRFGDIPYSQALKGEKEEIYTPEYDAQEDVFAGILQELREADEILANDASVIDGDIIYNGNSTQWRKLINSFRLKVLMTLSNHTTVGNINIASEFKNIATNSPLMNSLADNGQLVYLDQQGNRYPQFNAQWSGYYMDDTFIQRMRERRDPRLFIFSAQTNKGKTEGKPIDDFSSYEGGDPAAPYSDAIIKVSEGTISPINDRFRTDPIVEPTMLMGYAELQQILAEAVVRGWISGNAQTYYEKGIRASFSFYETHAKDYAGYLNENAVAQYLKEPLVDFTQASGTEEQIERIIMQKYLVTFYQGNWDSFYEQLRTGYPDFRRPAGTEIPKRWMYPQGEYDNNGTNVETAITRQFGAGNDKINQATWWQKKS
# Key:
# Test in all cases: glycan array binding signal (z-score within array); higher = stronger binding
# Settings in all cases: glycan notation: IUPAC condensed, linker removed
# [1] = target: Neu5Ac(a2-6)Gal(b1-3)GlcNAc(b1-3)[Gal(b1-4)GlcNAc(b1-6)]Gal(b1-4)Glc
# Summary of the method: (§1)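 The binding signal is a Z-score computed within each array. Data were drawn from 3228 arrays in the Consortium for Functional Glycomics database, restricted to those with a known protein sequence. Scores were averaged over arrays of the same protein sequence at different concentrations or buffers, and over linkers, and negative values can be taken as non-binding.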
# [2] = target: Neu5Ac(a2-6)Gal(b1-4)Glc
# Summary of the method: as §1
# [3] = target: Neu5Ac(a2-6)Gal(b1-4)GlcNAc
# Summary of the method: as §1
# [4] = target: Neu5Ac(a2-6)Gal(b1-4)GlcNAc(b1-2)Man
# Summary of the method: as §1
# [5] = target: Neu5Ac(a2-6)Gal(b1-4)GlcNAc(b1-2)Man(a1-3)Man(b1-4)GlcNAc(b1-4)GlcNAc
# Summary of the method: as §1
# [6] = target: Neu5Ac(a2-6)Gal(b1-4)GlcNAc(b1-2)Man(a1-3)[Gal(b1-4)GlcNAc(b1-2)Man(a1-6)]Man(b1-4)GlcNAc(b1-4)GlcNAc
# Summary of the method: as §1
# [7] = target: Neu5Ac(a2-6)Gal(b1-4)GlcNAc(b1-2)Man(a1-3)[GlcNAc(b1-2)Man(a1-6)]Man(b1-4)GlcNAc(b1-4)GlcNAc
# Summary of the method: as §1
# [8] = target: Neu5Ac(a2-6)Gal(b1-4)GlcNAc(b1-2)Man(a1-3)[GlcNAc(b1-4)][Neu5Ac(a2-6)Gal(b1-4)GlcNAc(b1-2)Man(a1-6)]Man(b1-4)GlcNAc(b1-4)GlcNAc
# Summary of the method: as §1
# [9] = target: Neu5Ac(a2-6)Gal(b1-4)GlcNAc(b1-2)Man(a1-3)[Man(a1-6)]Man(b1-4)GlcNAc(b1-4)GlcNAc
# Summary of the method: as §1
# [10] = target: Neu5Ac(a2-6)Gal(b1-4)GlcNAc(b1-2)Man(a1-3)[Neu5Ac(a2-3)Gal(b1-4)GlcNAc(b1-2)Man(a1-6)]Man(b1-4)GlcNAc(b1-4)GlcNAc
# Summary of the method: as §1
# [11] = target: Neu5Ac(a2-6)Gal(b1-4)GlcNAc(b1-2)Man(a1-3)[Neu5Ac(a2-6)Gal(b1-4)GlcNAc(b1-2)Man(a1-6)]Man(b1-4)GlcNAc(b1-4)GlcNAc
# Summary of the method: as §1
# [12] = target: Neu5Ac(a2-6)Gal(b1-4)GlcNAc(b1-2)Man(a1-3)[Neu5Ac(a2-6)Gal(b1-4)GlcNAc(b1-2)Man(a1-6)]Man(b1-4)GlcNAc(b1-4)[Fuc(a1-6)]GlcNAc
# Summary of the method: as §1
# [13] = target: Neu5Ac(a2-6)Gal(b1-4)GlcNAc(b1-2)Man(a1-6)Man(b1-4)GlcNAc(b1-4)GlcNAc
# Summary of the method: as §1
# [14] = target: Neu5Ac(a2-6)Gal(b1-4)GlcNAc(b1-2)Man(a1-6)[Gal(b1-4)GlcNAc(b1-2)Man(a1-3)]Man(b1-4)GlcNAc(b1-4)GlcNAc
# Summary of the method: as §1
# [15] = target: Neu5Ac(a2-6)Gal(b1-4)GlcNAc(b1-2)Man(a1-6)[GlcNAc(b1-2)Man(a1-3)]Man(b1-4)GlcNAc(b1-4)GlcNAc
# Summary of the method: as §1
# [16] = target: Neu5Ac(a2-6)Gal(b1-4)GlcNAc(b1-2)Man(a1-6)[Man(a1-3)]Man(b1-4)GlcNAc(b1-4)GlcNAc
# Summary of the method: as §1
# [17] = target: Neu5Ac(a2-6)Gal(b1-4)GlcNAc(b1-2)[Neu5Ac(a2-6)Gal(b1-4)GlcNAc(b1-4)]Man(a1-3)[GlcNAc(b1-4)][Neu5Ac(a2-6)Gal(b1-4)GlcNAc(b1-2)[Neu5Ac(a2-6)Gal(b1-4)GlcNAc(b1-6)]Man(a1-6)]Man(b1-4)GlcNAc(b1-4)GlcNAc
# Summary of the method: as §1
# [18] = target: Neu5Ac(a2-6)Gal(b1-4)GlcNAc(b1-2)[Neu5Ac(a2-6)Gal(b1-4)GlcNAc(b1-4)]Man(a1-3)[GlcNAc(b1-4)][Neu5Ac(a2-6)Gal(b1-4)GlcNAc(b1-4)Man(a1-6)]Man(b1-4)GlcNAc(b1-4)GlcNAc
# Summary of the method: as §1
# [19] = target: Neu5Ac(a2-6)Gal(b1-4)GlcNAc(b1-2)[Neu5Ac(a2-6)Gal(b1-4)GlcNAc(b1-6)]Man(a1-6)[Neu5Ac(a2-6)Gal(b1-4)GlcNAc(b1-2)Man(a1-3)][GlcNAc(b1-4)]Man(b1-4)GlcNAc(b1-4)GlcNAc
# Summary of the method: as §1
# [20] = target: Neu5Ac(a2-6)Gal(b1-4)GlcNAc(b1-3)Gal(b1-3)GlcNAc
# Summary of the method: as §1
# [21] = target: Neu5Ac(a2-6)Gal(b1-4)GlcNAc(b1-3)Gal(b1-4)GlcNAc
# Summary of the method: as §1
# [22] = target: Neu5Ac(a2-6)Gal(b1-4)GlcNAc(b1-3)Gal(b1-4)GlcNAc(b1-2)Man(a1-3)[Neu5Ac(a2-6)Gal(b1-4)GlcNAc(b1-3)Gal(b1-4)GlcNAc(b1-2)Man(a1-6)]GalNAc
# Summary of the method: as §1
# [23] = target: Neu5Ac(a2-6)Gal(b1-4)GlcNAc(b1-3)Gal(b1-4)GlcNAc(b1-3)Gal(b1-4)GlcNAc
# Summary of the method: as §1
# [24] = target: Neu5Ac(a2-6)Gal(b1-4)GlcNAc(b1-3)Gal(b1-4)GlcNAc(b1-3)Gal(b1-4)GlcNAc(b1-2)Man(a1-3)[Neu5Ac(a2-6)Gal(b1-4)GlcNAc(b1-3)Gal(b1-4)GlcNAc(b1-3)Gal(b1-4)GlcNAc(b1-2)Man(a1-6)]GalNAc
# Summary of the method: as §1
# [25] = target: Neu5Ac(a2-6)Gal(b1-4)GlcNAc(b1-3)Gal(b1-4)GlcNAc(b1-3)GalNAc
# Summary of the method: as §1
# [26] = target: Neu5Ac(a2-6)Gal(b1-4)GlcNAc(b1-3)Gal(b1-4)GlcNAc(b1-3)[Neu5Ac(a2-6)Gal(b1-4)GlcNAc(b1-3)Gal(b1-4)GlcNAc(b1-6)]GalNAc
# Summary of the method: as §1
# [27] = target: Neu5Ac(a2-6)Gal(b1-4)GlcNAc(b1-3)Gal(b1-4)GlcNAc(b1-6)[Gal(b1-3)]GalNAc
# Summary of the method: as §1
# [28] = target: Neu5Ac(a2-6)Gal(b1-4)GlcNAc(b1-3)Gal(b1-4)[Fuc(a1-3)]GlcNAc(b1-3)Gal(b1-4)[Fuc(a1-3)]GlcNAc
# Summary of the method: as §1
# [29] = target: Neu5Ac(a2-6)Gal(b1-4)GlcNAc(b1-3)GalNAc
# Summary of the method: as §1
# [30] = target: Neu5Ac(a2-6)Gal(b1-4)GlcNAc(b1-3)[Neu5Ac(a2-6)Gal(b1-4)GlcNAc(b1-6)]GalNAc
# Summary of the method: as §1
# [31] = target: Neu5Ac(a2-6)Gal(b1-4)GlcNAc(b1-6)GalNAc
# Summary of the method: as §1
# [32] = target: Neu5Ac(a2-6)Gal(b1-4)GlcNAc(b1-6)[Gal(b1-3)GlcNAc(b1-3)]Gal(b1-4)Glc
# Summary of the method: as §1
# [33] = target: Neu5Ac(a2-6)Gal(b1-4)GlcNAc(b1-6)[Gal(b1-3)]GalNAc
# Summary of the method: as §1
# [34] = target: Neu5Ac(a2-6)Gal(b1-4)GlcNAc6S
# Summary of the method: as §1
# [35] = target: Neu5Ac(a2-6)GalNAc
# Summary of the method: as §1
# [36] = target: Neu5Ac(a2-6)GalNAc(b1-4)GlcNAc
# Summary of the method: as §1
# [37] = target: Neu5Ac(a2-6)GalNAc(b1-4)GlcNAc6S
# Summary of the method: as §1
# [38] = target: Neu5Ac(a2-6)GlcNAc(b1-4)GlcNAc
# Summary of the method: as §1
binder,measurement,setting,value
B1,glycan array binding signal (z-score),[1],0.078
same,glycan array binding signal (z-score),[2],-0.148
same,glycan array binding signal (z-score),[3],-0.748
same,glycan array binding signal (z-score),[4],-0.666
same,glycan array binding signal (z-score),[5],0.128
same,glycan array binding signal (z-score),[6],-0.232
same,glycan array binding signal (z-score),[7],-0.135
same,glycan array binding signal (z-score),[8],-0.169
same,glycan array binding signal (z-score),[9],-0.651
same,glycan array binding signal (z-score),[10],-0.703
same,glycan array binding signal (z-score),[11],-0.162
same,glycan array binding signal (z-score),[12],1.58
same,glycan array binding signal (z-score),[13],-0.25
same,glycan array binding signal (z-score),[14],-0.231
same,glycan array binding signal (z-score),[15],-0.141
same,glycan array binding signal (z-score),[16],-0.287
same,glycan array binding signal (z-score),[17],-0.261
same,glycan array binding signal (z-score),[18],-0.34
same,glycan array binding signal (z-score),[19],0.272
same,glycan array binding signal (z-score),[20],-0.917
same,glycan array binding signal (z-score),[21],-0.872
same,glycan array binding signal (z-score),[22],0.988
same,glycan array binding signal (z-score),[23],-0.063
same,glycan array binding signal (z-score),[24],0.811
same,glycan array binding signal (z-score),[25],0.934
same,glycan array binding signal (z-score),[26],-0.361
same,glycan array binding signal (z-score),[27],0.249
same,glycan array binding signal (z-score),[28],-0.32
same,glycan array binding signal (z-score),[29],-0.454
same,glycan array binding signal (z-score),[30],0.017
same,glycan array binding signal (z-score),[31],-0.455
same,glycan array binding signal (z-score),[32],-0.089
same,glycan array binding signal (z-score),[33],-0.008
same,glycan array binding signal (z-score),[34],-0.946
same,glycan array binding signal (z-score),[35],-0.716
same,glycan array binding signal (z-score),[36],-0.192
same,glycan array binding signal (z-score),[37],-0.329
same,glycan array binding signal (z-score),[38],-0.559
